In PMC10433847, “The Plasmodium Lactate/H^+ Transporter PfFNT Is Essential and Druggable In Vivo” (Antimicrobial Agents and Chemotherapy, 2023):

Key:
[1] = system: rapamycin-treated G107S mutant parasites; assay: EC50 of conditional PfFNT line, rapamycin-treated G107S mutant (SYBR Green); details: 96 h, mean ± SEM
[2] = system: P. falciparum parasites with PfFNT G107S mutation; assay: EC50 determination by flow cytometry, drug-selected parasites with PfFNT G107S; format: cell-based, Plasmodium falciparum; details: G107S mutation vs 3D7 wild-type
Experimental: P. falciparum parasites, 3D7, were cultured in RPMI 1640 medium supplemented with 0.5% Albumax with 0+ erythrocytes (University Medical Center Hamburg-Eppendorf, Hamburg, Germany) at a 5% hematocrit at 37°C in an atmosphere containing 5% CO2, 1% O2, and 94% N2 under standard conditions ([31]). To obtain resistant parasites, 50 mL of parasite culture, starting with 5 × 10^8 to 6 × 10^8 parasites, were exposed to 3 × IC50 of either MMV007839 or BH267.meta until parasitemia was established again (around 2 weeks). For sequencing of the fnt gene, genomic DNA from the susceptible and resistant P. falciparum parasite lines was obtained from 5 mL of culture using the QIAamp DNA minikit (Qiagen, Hilden, Germany). The primer sequences used to sequence the entire fnt gene are available in Table S2. To determine the EC50, asynchronous parasites (0.5% to 1% starting parasitemia) were exposed to serial dilutions of the drug and grown for 2 days with one change of medium (including the appropriate concentration of drug), after which the parasitemia was determined using an LSR II FACS (BD Biosciences, Franklin Lakes, NJ) as previously described ([32]). The data were analyzed in GraphPad Prism to determine EC50 values.

[3] = system: DMSO-treated wild-type parasites (NF54 diCre conditional PfFNT G107S line); assay: EC50 of conditional PfFNT line, DMSO-treated wild-type (SYBR Green); details: 96 h, mean ± SEM

| SMILES | EC50 [1] | fold increased IC50 [2] | EC50 [3] |
| --- | --- | --- | --- |
| COc1ccc(C(=O)/C=C(\O)C(F)(F)C(F)(F)F)cc1 [BH296] | 15 ± 0.746 µM | 2.8 fold | 4.04 ± 1.08 µM |
| O=C(/C=C(\O)C(F)(F)C(F)(F)F)c1cccnc1 [BH267.meta] | 38.8 ± 1.96 µM | – | 0.173 ± 0.078 µM |
| COc1ccc2c(c1)OC(O)(C(F)(F)C(F)(F)F)CC2=O (stereo not shown) [MMV007839] | 47.7 ± 1.06 µM | – | 0.148 ± 0.048 µM |
